{
  "source": "paper PMC4336329",
  "about": "(PLoS ONE, 2015)",
  "note": "Out of some 310,000 compounds screened, about 14,000 (4.5%) showed an effect of 50% or more. The effect is printed as a negative number. The list shows a part of the results.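 Note: peak tail current of the secondary pulse compared with the same well before compound.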",
  "data": [
    {"target": "human ether-à-go-go-related gene (hERG) potassium channel (human, UniProt Q12809)", "sequence (Q12809 whole entry, looked up)": "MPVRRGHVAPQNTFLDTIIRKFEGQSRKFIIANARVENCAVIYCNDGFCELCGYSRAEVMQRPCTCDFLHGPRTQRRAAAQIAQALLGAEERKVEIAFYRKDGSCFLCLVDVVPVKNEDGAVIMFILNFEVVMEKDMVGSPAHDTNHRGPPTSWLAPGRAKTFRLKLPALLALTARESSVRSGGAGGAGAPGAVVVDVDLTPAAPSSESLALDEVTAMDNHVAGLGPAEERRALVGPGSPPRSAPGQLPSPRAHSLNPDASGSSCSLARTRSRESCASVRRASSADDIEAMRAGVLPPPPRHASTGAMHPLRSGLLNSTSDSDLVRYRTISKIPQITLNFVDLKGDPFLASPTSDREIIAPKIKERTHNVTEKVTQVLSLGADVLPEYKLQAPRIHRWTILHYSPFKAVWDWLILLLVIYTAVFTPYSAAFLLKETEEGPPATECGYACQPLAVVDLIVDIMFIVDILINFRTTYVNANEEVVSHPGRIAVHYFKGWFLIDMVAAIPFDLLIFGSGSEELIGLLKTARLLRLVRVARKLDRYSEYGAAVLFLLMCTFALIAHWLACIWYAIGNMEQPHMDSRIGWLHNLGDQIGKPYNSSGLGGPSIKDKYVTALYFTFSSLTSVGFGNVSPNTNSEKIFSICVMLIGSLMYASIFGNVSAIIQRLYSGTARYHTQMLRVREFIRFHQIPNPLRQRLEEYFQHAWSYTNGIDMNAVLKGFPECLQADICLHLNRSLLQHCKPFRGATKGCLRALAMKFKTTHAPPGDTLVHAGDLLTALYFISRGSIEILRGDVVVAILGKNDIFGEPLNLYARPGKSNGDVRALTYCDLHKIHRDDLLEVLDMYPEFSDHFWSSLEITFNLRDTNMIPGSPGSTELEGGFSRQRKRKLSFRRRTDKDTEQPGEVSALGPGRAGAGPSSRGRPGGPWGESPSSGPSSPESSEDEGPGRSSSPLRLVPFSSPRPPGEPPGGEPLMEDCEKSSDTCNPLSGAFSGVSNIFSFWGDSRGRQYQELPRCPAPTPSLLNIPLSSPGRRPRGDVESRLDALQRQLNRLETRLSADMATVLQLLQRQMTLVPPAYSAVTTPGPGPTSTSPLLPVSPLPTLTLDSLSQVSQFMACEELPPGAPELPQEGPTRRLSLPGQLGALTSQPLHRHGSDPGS", "experiment": "primary screen, population patch clamp on CHO cells stably expressing hERG", "units": {"hERG current change (%, negative = inhibition) at 10uM": "%"}, "values": [
      {"compound": "CCOC(=O)C1=C(Cc2ccc(Cl)cc2)C(=O)c2ccccc2C1=O", "hERG current change (%, negative = inhibition) at 10uM": -8.05},
      {"compound": "CC1CCCCN1C(=O)CN(C)S(=O)(=O)c1cccc2nsnc12", "note": "(stereo not shown)", "hERG current change (%, negative = inhibition) at 10uM": 12.8},
      {"compound": "CCOc1ccc(NC(=O)C/C(C)=N/NC(=O)COc2ccc(Br)cc2C)cc1", "hERG current change (%, negative = inhibition) at 10uM": -16.7},
      {"compound": "COC(=O)c1ccc(Cl)c(NC(=O)NC2CCCCC2)c1", "hERG current change (%, negative = inhibition) at 10uM": 7.26},
      {"compound": "O=C(CC(c1ccccc1)c1cc(Br)ccc1O)NCCN1CCOCC1", "note": "(stereo not shown)", "hERG current change (%, negative = inhibition) at 10uM": -34.7},
      {"compound": "O=C(Nc1ccc(Br)cc1)c1cc([N+](=O)[O-])cc([N+](=O)[O-])c1", "hERG current change (%, negative = inhibition) at 10uM": 9.98},
      {"compound": "Cc1occc1C(=O)N/N=C/C=C/c1ccccc1[N+](=O)[O-]", "hERG current change (%, negative = inhibition) at 10uM": -14.3},
      {"compound": "COCC(C)n1c(C)cc(C(=O)COC(=O)c2c(C)nn(-c3ccccc3)c2C)c1C", "note": "(stereo not shown)", "hERG current change (%, negative = inhibition) at 10uM": -35.2},
      {"compound": "CCCCN(C)Cc1c(C)[nH]c2c(ccc3ccccc32)c1=O", "hERG current change (%, negative = inhibition) at 10uM": -73.6},
      {"compound": "O=C(O)c1cc(-c2ccc(Cl)cc2)n[nH]1", "hERG current change (%, negative = inhibition) at 10uM": -6.64},
      {"compound": "O=C(c1cccc(S(=O)(=O)N2CCN(c3ccccc3)CC2)c1)N1CC=C(c2ccccc2)CC1", "hERG current change (%, negative = inhibition) at 10uM": 14.3},
      {"compound": "CCOC(=O)N1CCC(Nc2c(Nc3ccc(C)c(C)c3)c(=O)c2=O)CC1", "hERG current change (%, negative = inhibition) at 10uM": -5.22},
      {"compound": "N#CC(C(=O)Nc1ccc(Cl)c(Cl)c1)=C1Nc2ccccc2N1", "hERG current change (%, negative = inhibition) at 10uM": -9.86},
      {"compound": "CCOc1ccccc1NS(=O)(=O)c1csc(C(N)=O)c1", "hERG current change (%, negative = inhibition) at 10uM": 11.7},
      {"compound": "COc1cc2c(cc1OC)-c1c3c(cc4c1[C@@H](C2)N(C)CC4)OCO3", "hERG current change (%, negative = inhibition) at 10uM": -31.7},
      {"compound": "Cc1cccc(NC(=O)CSCC(=O)Nc2ccc(S(=O)(=O)N3CCCC3)cc2)c1", "hERG current change (%, negative = inhibition) at 10uM": -2.22},
      {"compound": "CC1(C)Cc2ccccc2C(CSc2ccccc2C(=O)O)=N1", "hERG current change (%, negative = inhibition) at 10uM": 19.2},
      {"compound": "O=C(Nc1oc2ccc(Cl)cc2c(=O)c1-c1ccc(F)cc1)c1ccco1", "hERG current change (%, negative = inhibition) at 10uM": 0.0714},
      {"compound": "CCOC(=O)COc1cccc2c(=O)n(CC(=O)NCCc3ccccc3)ccc12", "hERG current change (%, negative = inhibition) at 10uM": 7.91},
      {"compound": "NC(=O)C(Cc1ccccc1)NS(=O)(=O)c1ccc(N2CCCC2=O)cc1", "note": "(stereo not shown)", "hERG current change (%, negative = inhibition) at 10uM": -5.05},
      {"compound": "Cc1cc(C(=O)N/N=C/c2ccc([N+](=O)[O-])cc2)c2ccccc2n1", "hERG current change (%, negative = inhibition) at 10uM": 17.2},
      {"compound": "COc1ccc(OC)c(-c2c(C#N)c(N)nc3c2c(=O)nc2sccn23)c1", "hERG current change (%, negative = inhibition) at 10uM": 4.87},
      {"compound": "Cc1ccc(S(=O)(=O)NCC2CCC(C(=O)NC3CCCCC3)CC2)cc1", "note": "(stereo not shown)", "hERG current change (%, negative = inhibition) at 10uM": 4.25},
      {"compound": "CCCCn1c(N)c(N(CCC(C)C)C(=O)C2CCCN(C(=O)c3ccc(Cl)cc3)C2)c(=O)[nH]c1=O", "note": "(stereo not shown)", "hERG current change (%, negative = inhibition) at 10uM": 2.1},
      {"compound": "Cc1cc(N(CC(=O)NC2CC2)S(C)(=O)=O)ccc1Br", "hERG current change (%, negative = inhibition) at 10uM": 7.52},
      {"compound": "CC1CCN(C(=O)CC2C(=O)Nc3c2c(=O)n(C)c(=O)n3Cc2ccccc2)CC1", "note": "(stereo not shown)", "hERG current change (%, negative = inhibition) at 10uM": 7.07},
      {"compound": "NC(=O)CSc1nnc(-c2ccc3c(c2)OCO3)o1", "hERG current change (%, negative = inhibition) at 10uM": 6.02},
      {"compound": "COC(=O)c1ccccc1NC(=S)N1CCOCC1", "hERG current change (%, negative = inhibition) at 10uM": 22.2},
      {"compound": "CCC(CC)C(=O)Nc1ccc([N+](=O)[O-])cn1", "hERG current change (%, negative = inhibition) at 10uM": 10.8},
      {"compound": "COc1ccccc1CCC(=O)Nc1cccc(S(=O)(=O)N2CCCCCC2)c1", "hERG current change (%, negative = inhibition) at 10uM": -2.9},
      {"compound": "CCCCCc1nc2c(=O)n(C)c3ccccc3c2o1", "hERG current change (%, negative = inhibition) at 10uM": -46.7},
      {"compound": "Cc1nnc(-c2cnn(-c3ccccc3)c2N)n1Cc1ccccc1", "hERG current change (%, negative = inhibition) at 10uM": -1.94},
      {"compound": "COc1ccc(NC(=O)C(c2ccccc2)N(C)C(=O)CNC(C)=O)cc1", "note": "(stereo not shown)", "hERG current change (%, negative = inhibition) at 10uM": 20.8},
      {"compound": "CCCN(CC(=O)Nc1ccc(C)cc1Br)CC(=O)Nc1ccc(F)c(F)c1F", "hERG current change (%, negative = inhibition) at 10uM": -4.78},
      {"compound": "CCOC(=O)C1=C(c2ccccc2)NC(SCC(=O)Nc2ccc(C)cc2)=C(C#N)C1c1ccco1", "note": "(stereo not shown)", "hERG current change (%, negative = inhibition) at 10uM": -22.9},
      {"compound": "CCOC(=O)N1CCC(N2Cc3cccc(C(=O)Nc4cccc(F)c4)c3C2=O)CC1", "hERG current change (%, negative = inhibition) at 10uM": -72.1},
      {"compound": "CCOC(=O)c1sc2nc(C)nc(N3CCCCC3C)c2c1C", "note": "(stereo not shown)", "hERG current change (%, negative = inhibition) at 10uM": -26.9},
      {"compound": "O=C(C[n+]1ccccc1)Nc1ccccc1C(F)(F)F.[Cl-]", "hERG current change (%, negative = inhibition) at 10uM": 15},
      {"compound": "Cn1cc(C(=O)C(=O)N2CCc3ccccc32)c2ccccc21", "hERG current change (%, negative = inhibition) at 10uM": 19.7},
      {"compound": "O=C1c2ccccc2C(O)(c2ccccc2)N1C1CC1", "note": "(stereo not shown)", "hERG current change (%, negative = inhibition) at 10uM": -45.4},
      {"compound": "COc1cccc(/C=C2/SC(=S)N(CCCC(=O)Nc3ccc(O)cc3)C2=O)c1", "hERG current change (%, negative = inhibition) at 10uM": 7.8},
      {"compound": "O=C(NNS(=O)(=O)c1ccccc1[N+](=O)[O-])c1ccc(F)cc1", "hERG current change (%, negative = inhibition) at 10uM": 16.3},
      {"compound": "CN(C)CCCN(C(=O)c1ccc(S(=O)(=O)N(C)Cc2ccccc2)cc1)c1nc2c(F)cccc2s1.Cl", "hERG current change (%, negative = inhibition) at 10uM": -38.2}
    ]}
  ]
}
